# Data reported in the supplement of paper PMC11417369.
# The other results are listed elsewhere or left out.
# Tested on: PF3D7_0420300 AP2 domain 1 (GST-tagged)
# Assay: gcPBM binding intensity (ln(normalized median fluorescence intensity)); higher = stronger DNA binding
# In short: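 Binding of GST-tagged P. falciparum DNA-binding domains, expressed in E. coli and used at about 25 μg on average, was carried out for 1 h in 1× PBS containing 1% milk, 0.2 mg/ml BSA, 0.5% salmon testes DNA and 0.03% Triton X-100. The target was an Agilent 4 × 180k array of primer-extended double-stranded 36-bp intergenic genomic probes plus negative controls, read with Alexa488 anti-GST antibody at 488 nm. Binding intensity is the highest Masliner-normalised natural-log median intensity across replicate spots of either probe orientation.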
row,Sequence,gcPBM binding intensity (ln)
1,CACTTTATACGTAATTGTACTTTTTCTTTTTTTTAT [XGTACX_site3175],9.62
2,ACTTACTAATTAATGGGTACATACACACATATATAC [XGTACX_site1362],9.67
3,TATTCAAAGAAAGACAGTACGTGTAGCAAACAACCT [XGTACX_site4218],9.47
4,TAAATAAAGTATAATGCATGCTATTATAATATTAAT [TGCATGCA_site825],9.24
5,AATAAAAAAATAGAAACACACATTAAAAAAAATAAA [CACACA_site1333],9.72
6,ATGATATATAGACACACACACATATTTATATACATT [CACACA_site6404],10
7,TATTTTTCCATATGCACACACACCGTATATATAATA [CACACA_site1127],10
8,ATAACAAAATAAAACACACACACAAATGTACATATA [CACACA_site2425],10.3
9,AAATAAATAATTTAATGTACATATATAATATATATA [XGTACX_site1831],9.14
10,CATATACACCAACACACACACACACCCACAAAAAAA [CACACA_site496],10.2
11,TTAAAGAATATTTTCACACATAAAAATTTTAATTTA [CACACA_site4290],8.81
12,TTATAAAACACAAAATGTACAAAAAATTATAATTAA [XGTACX_site6859],9.29
13,AATATTATTATCTTACCACACACAATCTACGAAAAG [CACACA_site8006],9.49
14,TATATATATATAAGTGCACACTGAACCAAGAAAATT [CACACA_site5637],9.58
15,TATGTCTTGTTGTAAAATATTTATTAACAAATTGGC [CACACA_negctrl_site1452],8.89
16,TTAATAAAAATATATCCACACACATATATATATATG [CACACA_site8091],9.66
17,ATCATTTATTTTTTAAAAGTATATATATATATATAT [CACACA_negctrl_site220],9.14
18,TTTTTTTTTTTTTAAATAATCATACATGTGAAATTG [GTGCAC_negctrl_site328],8.69
19,AAATATAAGTTTTATTGTACATTATATAGCATATTT [XGTACX_site6618],9.16
20,ACATATTATAACATATGTACATATATATATATATAA [XGTACX_site5567],9.21
21,TTTTGACATTAACTTAAAAAATAAATAATTATAAAA [XGTACX_negctrl_site552],8.66
22,TATCATATAAAACATGCACACATATGTACTCTTATA [CACACA_site9249],9.52
23,AAAAAATAAGATTGTACACACATAAATTCTTTGTCA [CACACA_site2089],9.39

row,Sequence,gcPBM binding intensity (ln)
1,CGTTCTATTTAGATATGTACTTAAATATATGATCAT [XGTACX_site2936],9.2
2,AAAGTAAAAAAAAAAACATGCATACGCTAATTTTTA [TGCATGCA_site301],8.97
3,GATATGTTAAATATATGTACATATATAAACCCAAAC [XGTACX_site6601],9.68
4,AAAAAGTGATTAAAATGTACAAAATGCATAAAAGAA [XGTACX_site6625],9.6
5,ATTTTAATACTTTTATATTAAATGTAGCACATCATA [XGTACX_negctrl_site273],8.94
6,CATTTTTTGCTTTCAACACACATACAATATAAATAA [CACACA_site7858],9.31
7,TTATTTATTTAGTAGTGTACTTTTTATATTTATAAT [XGTACX_site5978],9.37
8,AAAAAAAAAAAATACACACACATATATATATATATA [CACACA_site2224],9.65
9,TATGTAATAAATAGTACACACACACCGATATATATA [CACACA_site8389],10.1
10,TATAATAATATTATAGTGCATATTATTTATATATAA [GTGCAC_site9820],8.98
11,ATTTTTATTTTCTTTACACACCACATAACTTTTTTT [CACACA_site7826],9.75
12,ATATATATATATATATGTACATATATCTACATATAT [XGTACX_site7588],9.11
13,ACTTTTTAATATTTTAGTACACAGTAATTCTTACTA [XGTACX_site1425],9.22
14,TTTAATATGAATTTATGTACATATATATATATATAT [XGTACX_site6337],9.09
15,TATATTAAAAAAAAATGTACATATATATAATATATA [XGTACX_site1935],9.19
16,ATACGTATATAATATACATGCATATATAGCACATAC [TGCATGCA_site376],9.37
17,ATAAAAAAAAAAAAAAATGAAGCATCACCGTGTAAT [XGTACX_negctrl_site288],9.46
18,CACGAAAAAAAAAAATGTACATAAAAATATGATACA [XGTACX_site2536],9.31
19,GAAAGAGAAATATATACACACATATTTATATTTTTA [CACACA_site2066],9.33
20,AAAAAAAAAAAAAAAAAAAAAGGACGGATGGATGGA [GTGCAC_negctrl_site527],9.48
21,TCTCATTTCAACAACAGTACATATCTATCTGTGTAT [XGTACX_site6897],9.16
22,AAAAAAAAAAAAAATAGTACGTAACTATAATTTCCT [XGTACX_site2457],9.06
